The values that follow come from the supplement of paper PMC10681739.

Over roughly 4,100 sequences, “arbitrary fluorescence units” has its median near 780; the highest 2% begin near 22,000. This is one part of the list.

The target of the assay is T1, ETS1 (UniProt P14921).
T1 sequence: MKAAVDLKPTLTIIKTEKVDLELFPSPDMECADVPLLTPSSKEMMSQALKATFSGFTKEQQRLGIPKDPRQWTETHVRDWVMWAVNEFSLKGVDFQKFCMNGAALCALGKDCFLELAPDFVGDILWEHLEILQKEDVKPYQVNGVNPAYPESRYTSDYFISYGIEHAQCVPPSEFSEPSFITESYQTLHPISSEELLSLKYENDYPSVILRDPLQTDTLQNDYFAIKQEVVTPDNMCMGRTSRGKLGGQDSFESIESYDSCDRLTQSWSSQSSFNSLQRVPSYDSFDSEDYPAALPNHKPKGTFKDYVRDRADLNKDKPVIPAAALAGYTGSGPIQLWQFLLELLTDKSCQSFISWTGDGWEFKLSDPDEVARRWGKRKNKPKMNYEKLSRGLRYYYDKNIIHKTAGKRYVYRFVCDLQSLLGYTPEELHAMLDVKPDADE
Put plainly: ETS1 binding intensity (PBM fluorescence), ETS1 alone (arbitrary fluorescence units); higher = stronger binding. The following applies: ETS1 concentration 1 nM; RUNX1 concentration 0 nM. Summed up: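 Full-length recombinant human ETS1 (1 nM, no RUNX1) was incubated, per standard PBM protocols, on double-stranded Agilent 4 × 180k arrays of 36-bp genomic probes whose RUNX1 partner site was mutated. Bound ETS1 was detected with anti-ETS1 antibody (Cell Signaling Technology 14069) and Alexa488-conjugated secondary antibody, then scanned on a GenePix 4400A. Binding level is spot fluorescence intensity, summarised over replicate spots (four printed per sequence) and not normalised.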
In the case of GATGACGTCACCAGAGTAAGACAACAGGATACCGCT, the ETS1 binding intensity turned out to be 414.

As to ACGCCCGCTGACAACACTGGCGACTTCCCTCTCTGT, the ETS1 binding intensity was found to be 417.

Sequence ACCTCCACCCCAAAGAACAAAAAAGGAAGGATAAAA returned an ETS1 binding intensity of 527.

In turn, TGGAAGCTTCGGCCGCCTCGCACCCGGAACAACAAA yielded an ETS1 binding intensity of 340.

GTCCCTGTTTCCTCCCTCAGCTCCCGAAACCTCCGG yielded an ETS1 binding intensity of 2490.

The sequence GCAGGGACCGGAAGTCCATGGCTCTGCCGCCACCCT registered an ETS1 binding intensity of 18000.

For the sequence TGGTTGTAGTTTGGAGATTCTGATGTCATTTCCTGT, the ETS1 binding intensity was determined as 1270.

The sequence AGCCCGGCTTCCGGCGCGTGCCGCTGCAGCTGCAGG displayed an ETS1 binding intensity of 11200.

GCCTTTCTGGAGCCCCAAAGACAGGAAGAGAGCGTC gave an ETS1 binding intensity of 693.

Consider GATAAGCGGATTCTAATGAGCTCACTGGTTTCCGAT, for which the ETS1 binding intensity was 410.

AATACCCTCTGGTGGCCGCCGGAAGTGTCGCGGCGG came in with an ETS1 binding intensity of 2280.

Sequence GGTCCAGGAAGACGTCAAGGGCTTGGATTTGTAAAC showed an ETS1 binding intensity of 437.

AAGTTGATTTCCGGGTAGTCTGTAGTTTCCTAATCA showed an ETS1 binding intensity of 10600.

In turn, GCTGGGCCATCCTGCCACATGCACCTCATCTCTGGG came in with an ETS1 binding intensity of 923.

CTACCGTGCCCTCAAGGCAGCGCGCCGGAAGCCCCG came in with an ETS1 binding intensity of 573.

AGAGGAAGTAAATTCTAACAGTGGAAATCACAGATT gave an ETS1 binding intensity of 496.

Sequence CTCTTCAGCAGGAAATGATGTGATAAAACAGGGTTA came in with an ETS1 binding intensity of 3070.

Regarding GGCTTCCGCCTGCCGAGCGGCCCCGGACTGCAGGCC, the ETS1 binding intensity is 9840.

Take GCAAACACACCAGAGACTGCAGACCCGGAAGAACTT: the ETS1 binding intensity was 525.

The sequence TACGGCGGGAACCCCAATCGCGCAGTTCCGCAGCTG displayed an ETS1 binding intensity of 317.

The sequence TGCTTCTTCGGTGGCAGTGGCTTCCTCTGGCAAGGG showed an ETS1 binding intensity of 470.

For the sequence CGGTGCAATGGTTCCGCCTCCCGCTGGTTCGCCGAG, the ETS1 binding intensity stood at 462.

Consider AGCTGGGGGCGCTTGTGGAGGGAAGTCCCTTGGCAT, for which the ETS1 binding intensity is 412.

For GGCGTGCTTCGGTGCTGTCATTTCCTGGTGCCTTTT, the ETS1 binding intensity was 1470.

Consider TGGGGCTCTTCCTGCTTATGTGAGCACAGCACCTTG, for which the ETS1 binding intensity is 4750.

On to CCGCCCACTTCCGTGTGGCCGCCGATTGGTCTTGCC, for which the ETS1 binding intensity was found to be 7350.

In the case of GACAACTGCCAGTAACGACAGCAGCTTCCGTTCCCC, the ETS1 binding intensity is 1380.

As to GGTGGACCTGTGATTTGCAACACAGGAAGAGGCGGC, the ETS1 binding intensity stood at 1260.

Sequence AAAGGTGCTTGAGATCTATCCCACATCCTGTCTTTC gave an ETS1 binding intensity of 2450.

GTTTCGGGCCGAAGAAGCTCATGAGGGAAACGCAGG registered an ETS1 binding intensity of 366.

ACTCCAGGATCCGGCCGCGTTGCTCACACACTTCGC: the ETS1 binding intensity was 1180.

As for TGAGGGCATAGGAAGTGATGGCCGTAAGGGGATGCC, the ETS1 binding intensity was found to be 673.

TTTGATTTCCTGTCTCCATGTTGGGGTCAAGATTGC came in with an ETS1 binding intensity of 16200.

For GAAGGAAGCCCGGTCACCTTTCTTGGCCCTCAGAGT, the ETS1 binding intensity came to 419.

With CCAGAAATCCACTGGAGGTAACTTCCTCCATTTTTT, the ETS1 binding intensity is 783.

Turning to CCCTTCCTGTGAGGGAGGTTCCAGTTCCCTCAGCGG, the ETS1 binding intensity came to 7140.

TGCTTCATCTGAGGTGAGGGCTGCTTCCTGCTCTGT gave an ETS1 binding intensity of 850.

In turn, TGCGCCGCTTCCGCTGCCCGAGGAAGAGCCCCAGTC showed an ETS1 binding intensity of 8590.

TATGCTGGGACTGCTAGCCCTTCCGGCGCGCCTCAG had an ETS1 binding intensity of 1250.

Regarding GCGCTGTACTGCGCCTTGTGCCGCTTCCGCGAGAAG, the ETS1 binding intensity came to 369.

Take GCCCCTTTTTCCTGGGATGAGCGCTTAGCGGAGGGG: the ETS1 binding intensity was 746.

As to CCGAGGTGGTGCCCTTGCCCCTGATGAGGAAACTGA, the ETS1 binding intensity was determined as 342.

In the case of TGGATAAGCGCGCAAGGTCTCGCGGAAAGGAGAGGA, the ETS1 binding intensity amounted to 347.

CTAAGGCTGTGATTTGTACCCTAGCAGGAAAGGCAG came in with an ETS1 binding intensity of 421.

In turn, ACTCTAAGCGCAGTGACGTGGGACTTCCTCGGCAGG showed an ETS1 binding intensity of 400.

With CAATGTGATTAAAACCAGTTAGTTCCCTCGGAAGTT, the ETS1 binding intensity turned out to be 473.

In turn, CCAGTGCAGAAACATCCCTCCTGCCGCCGCTTTGTC displayed an ETS1 binding intensity of 422.

On to ACCCACTTCCTGTTAGAGCATCTTTGCAACCCCAGG, for which the ETS1 binding intensity is 30200.

CCCGCCACCTCAGAAGAGCCAATCGGAAGCTCTGGG came in with an ETS1 binding intensity of 351.

Turning to CCCAGAGCTTCCGATTGGCTCTTCTGAGGTGGCGGG, the ETS1 binding intensity turned out to be 1750.

In turn, AAACAGGAAATCACAGCAGCGTAGCGGAGTGGAGCA yielded an ETS1 binding intensity of 4950.

In the case of GCCTCTCTGGGCTGATGAAGGACAGACAGGAAGCCA, the ETS1 binding intensity was 546.

TGAAGTTGAGGGGTGTTTTTATCAGCAGGAAACAGC: the ETS1 binding intensity is 407.

The sequence GAATAACTACAACAACCGATGCACTTCCGTGTTTAA came in with an ETS1 binding intensity of 893.

ATTCTGCATCCTGTGCTCTTTCCATGAGACCAAAAA: the ETS1 binding intensity turned out to be 5770.

CCTAAAACCCAGTTCCGGGACCCAGCGCTGAAGGTC returned an ETS1 binding intensity of 1900.

Consider TGTTGACTCAGGAAGATGATGGCTGAGGGGGCTGCA, for which the ETS1 binding intensity was 509.

The sequence GTTGAGGTGTCCCACTAACCAAACAGGATGTGGGGG had an ETS1 binding intensity of 1740.

The sequence TGCGCTCGATTGTGAGCGGGGGCGGAAAGAGGCGCC had an ETS1 binding intensity of 471.

In the case of CATGGCCCTGGGGCTGGACCGGACGCGGCGGCTGCA, the ETS1 binding intensity was determined as 576.

The sequence TTGTTGTAGTTCTACGTCACGTGGTCCCGGAAGTTC registered an ETS1 binding intensity of 662.

Consider CGTTCTCTCATTTCCTGTGTGCACCCTCATGAACCA, for which the ETS1 binding intensity worked out at 15600.

AGAGCCACATCCCGCGCAGAGGACAGCGGCGACCGG displayed an ETS1 binding intensity of 1290.

With AGAATCCGCTGGGCGGAGCAGCGGGAGGAAGCTGCA, the ETS1 binding intensity turned out to be 927.

TTGCTTTATCACTTCCTGTTTGAGCTTTATATCCAT registered an ETS1 binding intensity of 21400.

CTGGAACAGCAGGATCCTTGCTGCTTCCTCTCGGTC yielded an ETS1 binding intensity of 527.

Consider CTGCAGCGGGGATCCTTGGGGCCCTTCCGGTCGGTG, for which the ETS1 binding intensity turned out to be 2190.

AGGCAATCTGGGGCTGTAGTTTCCTCAGTTCAGGCT showed an ETS1 binding intensity of 335.

TAAACCCTGCTTCCTGTCCCTGCGCCCCACTAGGAG came in with an ETS1 binding intensity of 9870.

GCCCCGCCTACAGAGGAGGGTACCCCGCCGGAAGCC returned an ETS1 binding intensity of 473.

The sequence CAGGGGCCGCTGTCGCGCTCCTCGCGGCCGGAAGAG yielded an ETS1 binding intensity of 420.

Consider TGGCGGCTCTGGGGATTTGCCGGAAGGTTAATAATG, for which the ETS1 binding intensity worked out at 383.

In turn, GACACTCATCCTGACTCCACTCGCCTGCAGGCAGGC displayed an ETS1 binding intensity of 549.

For the sequence TTCTATCCTGCCTTGCATGTCTTTAATCACACTGAG, the ETS1 binding intensity came to 1540.

For CTACAGTTTAATCACAGAGTTTCCTCCTTAACGTAA, the ETS1 binding intensity worked out at 619.

GCCCCAGGAAGAGCGCTCCCGCGAACTGCGCCGGTG showed an ETS1 binding intensity of 477.

On to TACAGCTTCCTTCACCCCACTTGGGGCCTGGGTTAC, for which the ETS1 binding intensity stood at 1140.

As for GGTGGGAGTGAGCACAACACTTCCTGCCCTCTTCCA, the ETS1 binding intensity was 3330.

Consider CTTTAAGGAGGCGGAAAAGTTAACAGCGATGGGCAG, for which the ETS1 binding intensity is 398.

In turn, TCCGTGACGTGAGGTGTAGTTGGGGAAACGCACCGT yielded an ETS1 binding intensity of 325.
